Among all 150,000 compounds or so, about 540 (0.36%) showed an effect of 50% or more. Some of the results follow.

For this experiment, the system named is Plasmodium falciparum. Description: Primary screen in NF54 nanoGlo assay, in single point, at 2uM, 72h; a lower Z score goes with more inhibition. It counts as functional, Erythrocyte. The settings on record: timepoint 72 hour.
In the case of `COCCNC(=O)Cc1cccc(N(Cc2ccc(C)cc2)C(=O)C2CCCC2)c1`, the “% Inhibition” value is recorded as -9% and the Z score was 0.87.

Regarding `O=C(CCc1c[nH]c2ccccc12)OCc1nnsc1Cl`, the “% Inhibition” value is listed as -15% and the Z score is reported as 2.84.

With `CC(C)CN(Cc1cccc(OS(=O)(=O)c2cccc(C(F)(F)F)c2)c1)C(=O)Nc1ccc(F)cc1F`, the “% Inhibition” value was -26% and the Z score turned out to be 4.06.

Regarding `Cc1nnc(NCCc2csc(-c3ccccc3)n2)[nH]c1=O`, the “% Inhibition” value is -15% and the Z score was determined as 2.06.

Turning to `CC(C)c1nc([C@H]2CC[C@@H](O)CC2)n(-c2cccc3cccnc23)n1`, the “% Inhibition” value is listed as -4% and the Z score is listed as 0.49.

As for `CC(C)(NC(=O)Nc1ccccc1F)c1c[nH]nn1`, the “% Inhibition” value is recorded as -11% and the Z score was 1.5.

With `O=C(O)[C@H]1CCCN1C(=O)CCc1ccncc1`, the “% Inhibition” value was 11% and the Z score was -1.32.

For `COc1ccc2[nH]c3c(c2c1)CCN(C)C31CCN(C(=O)c2cnccc2C)CC1`, the “% Inhibition” value was -2% and the Z score came to 0.38.

Take `Cc1nn(C)cc1[C@H](C)NC(=O)c1ccn(CCc2ccccc2)n1`: the “% Inhibition” value stood at 1% and the Z score is -0.13.

For `Cc1c(CN[C@H]2CCCCNC2=O)cc(C#N)n1C`, the “% Inhibition” value is reported as -8% and the Z score is given as 1.12.

Regarding `CC[C@H](C)C(=O)NS(=O)(=O)N1CCN(Cc2ccccc2)CC1`, the “% Inhibition” value is recorded as 3% and the Z score is given as -0.34.

For the compound `Cc1cccc(-c2ncc(C(=O)N3CCC(C)CC3)c(N(C)C3CCCCC3)n2)c1`, the “% Inhibition” value is -12% and the Z score is 2.37.

For the compound `COc1ccc2c(CN3CCOC[C@@H](CN(C)C)C3)cn(C)c2c1`, the “% Inhibition” value is given as -2% and the Z score was found to be 0.27.

With `Cc1csc(C2(NC(=O)Nc3ccnn3[C@@H](C)CC(C)C)CCC2)n1`, the “% Inhibition” value was -6% and the Z score was 0.72.

On to `CCC[C@H](C)N(C)C(=O)CCN(Cc1ccccc1)C(C)=O`, for which the “% Inhibition” value is reported as -7% and the Z score worked out at 0.91.

Consider `CCN(CCn1cccn1)S(=O)(=O)c1ccc(OCC(N)=O)cc1`, for which the “% Inhibition” value is recorded as -2% and the Z score is on record as 0.31.

In the case of `CN(C)C(=O)c1ccc(OC2CCOCC2)nc1`, the “% Inhibition” value was -3% and the Z score is 0.48.

For the compound `Cc1nc([C@@H]2CCC[C@H](N)C2)n(C2Cc3ccccc3C2)n1`, the “% Inhibition” value is 6% and the Z score is on record as -0.85.

Regarding `CCN(CCn1cccn1)C[C@]1(c2ccc(F)cc2)CCOC1`, the “% Inhibition” value is given as -5% and the Z score stood at 0.69.

For `Cn1nnc(C(=O)NC2CC[C@H]3CN(Cc4ccccc4)C[C@H]3C2)n1` (stereo partly specified), the “% Inhibition” value is -5% and the Z score was 0.86.

`CCOc1cc(C#N)ccc1OCC(=O)Nc1cc(C2CCCC2)nn1-c1ccccc1`: the “% Inhibition” value is listed as -3% and the Z score is given as 0.43.

Turning to `Cc1ccc(C(=O)N2CC[C@@H]3CN(Cc4ccccc4)[C@@H]3C2)cc1`, the “% Inhibition” value is listed as -10% and the Z score is given as 1.2.

On to `Cc1cc(C(=O)N2CC(F)(F)C[C@H]2COc2cccnc2)n(C)n1`, for which the “% Inhibition” value is -4% and the Z score is given as 0.65.

With `Cc1c(CC(=O)N2CC[C@@H](O)C2)c2c(n1CCCc1ccccc1)CCCC2=O`, the “% Inhibition” value is -12% and the Z score was 2.11.

For `Cc1ncc(C(=O)NC2CCCC2)c(=O)n1CC(=O)Nc1ccc(F)cc1Cl`, the “% Inhibition” value was -11% and the Z score was 1.65.

With `CCCc1nnc(N2CC(Oc3cccc(Cl)c3)C2)o1`, the “% Inhibition” value is -17% and the Z score amounted to 3.21.

On to `O=C(c1cc(-c2cccc(F)c2)ns1)N1CCN(c2ccccc2)CC1`, for which the “% Inhibition” value is listed as -13% and the Z score was determined as 1.76.

For the compound `CC1=C(CCN2CCO[C@H](C(=O)O)C2)C(C)(C)CCC1`, the “% Inhibition” value is -5% and the Z score worked out at 0.96.

As to `Cc1nc(C(C)C)sc1[C@H](C)NCc1cnn(C)c1C`, the “% Inhibition” value was -10% and the Z score was found to be 1.46.

Consider `Cn1ccnc1CN(CCO)C(=O)[C@@H]1CC=CCC1`, for which the “% Inhibition” value was -8% and the Z score is 1.09.

Take `Cc1cc2c(cc(C(=O)NCc3ccccc3)n2[C@@H](C)c2ccccc2)s1`: the “% Inhibition” value came out at 7% and the Z score is on record as -0.92.

With `COc1ccc(NC(=O)Cn2nc3n(c2=O)CCCC3)cc1Cl`, the “% Inhibition” value is given as -4% and the Z score came to 0.61.

Take `C[C@H](NCc1ccccc1CN1CCOCC1)C(=O)Nc1cccc2ccccc12`: the “% Inhibition” value is -7% and the Z score came to 1.29.

`CN(C)c1ccc(NC(=O)c2ccoc2)cn1`: the “% Inhibition” value is listed as 27% and the Z score is given as -3.09.

For the compound `COc1ccc(-c2ccc(N3CCCN(C(=O)CN(CCN4CCOCC4)C(=O)c4cccc(F)c4)CC3)nn2)cc1`, the “% Inhibition” value is -24% and the Z score is 2.1.

In the case of `O=C(N[C@@H]1COC2(CCCCC2)C1)c1nc2ccc(Cl)cn2c1F`, the “% Inhibition” value was -8% and the Z score was found to be 1.06.

Turning to `NC(=O)C1CCC(CNC(=O)C2CC2c2ccco2)O1` (stereo unspecified), the “% Inhibition” value came to 3% and the Z score is -0.38.

Take `CCN1c2ccc(C)cc2C(=O)NC12CCN(C(=O)c1cccc(OC)c1)CC2`: the “% Inhibition” value is -18% and the Z score is recorded as 2.33.

Take `Cc1ccc(C(=O)NC2(c3ccccc3F)COC2)o1`: the “% Inhibition” value is reported as 2% and the Z score is listed as -0.38.

Take `C[C@@H](c1nc2ccccc2c(=O)[nH]1)N1CCc2c(nc(C3CC3)n2C)C1`: the “% Inhibition” value was -14% and the Z score was determined as 2.58.

For the compound `O=C(CNC(=O)c1cnccn1)NCCc1c[nH]c2ccccc12`, the “% Inhibition” value is reported as -5% and the Z score came out at 0.78.

In the case of `CC(C)Cn1ccc(C(=O)Nc2nccnc2C(C)C)n1`, the “% Inhibition” value came out at 5% and the Z score is -0.85.

Turning to `CC(=O)Nc1ccc(C(=O)N2CCC3(CC2)NC(c2ccc(C)cc2)=NO3)cc1`, the “% Inhibition” value was -4% and the Z score turned out to be 0.47.

On to `COc1ccc(NC(=O)c2cc(-c3cccc4ccccc34)nc3ccccc23)c(OC)c1`, for which the “% Inhibition” value is -11% and the Z score was 1.14.

For the compound `Cc1cc(CN(C)C[C@H]2CCC(=O)O2)ccn1`, the “% Inhibition” value was -4% and the Z score is 0.79.

As for `Cc1cc2c(c(-c3ccc(Cl)cc3)c1)O[C@@H](CNC(=O)Cc1csc(C)n1)C2`, the “% Inhibition” value is recorded as -14% and the Z score was 1.58.

In the case of `CC[C@H](C)n1ncc(C(=O)Nc2n[nH]c(Cc3cccc(F)c3)n2)c1C1CC1`, the “% Inhibition” value is -5% and the Z score was 0.5.

On to `C[C@H]1CN(C(=O)c2cc(C#N)cn2C)CCN1C(=O)OC(C)(C)C`, for which the “% Inhibition” value stood at 7% and the Z score was -0.93.

`CC(C)(CNC(=O)N1CCCC1)N1CCOCC1`: the “% Inhibition” value is reported as -8% and the Z score was found to be 1.13.

With `O=C(Nc1ccc(C2OC(=O)N(Cc3ccccc3)C2C(=O)NCCN2CCOCC2)cc1)c1ccco1` (stereo unspecified), the “% Inhibition” value is -9% and the Z score is 1.09.

Take `Cc1cccc(NC(=O)Cn2cncc(-c3nc(-c4ccccc4)cs3)c2=O)c1C`: the “% Inhibition” value is listed as -4% and the Z score was 0.6.

On to `OCCO[C@H]1CCOC[C@H]1Nc1ncc(F)c(N2CCOCC2)n1`, for which the “% Inhibition” value is listed as -11% and the Z score was determined as 2.26.

In the case of `C[C@H]1CCn2c(nc3cc(C(=O)N4CCOCC4)ccc32)C1`, the “% Inhibition” value is on record as -22% and the Z score came out at 3.15.

Values taken from ChEMBL document CHEMBL4888484, “Replenishing the malaria drug discovery pipeline: Screening and hit evaluation of the MMV Hit Generation Library 1 (HGL1) against asexual blood stage Plasmodium falciparum ,using a nano luciferase reporter read-out” (2022).
